The values below come from paper PMC12820563.

Some of the results follow. The list includes weakly bound sequences.

The target in this test is T1, MBP-FoxP3dN (UniProt Q99JB6).
T1 sequence: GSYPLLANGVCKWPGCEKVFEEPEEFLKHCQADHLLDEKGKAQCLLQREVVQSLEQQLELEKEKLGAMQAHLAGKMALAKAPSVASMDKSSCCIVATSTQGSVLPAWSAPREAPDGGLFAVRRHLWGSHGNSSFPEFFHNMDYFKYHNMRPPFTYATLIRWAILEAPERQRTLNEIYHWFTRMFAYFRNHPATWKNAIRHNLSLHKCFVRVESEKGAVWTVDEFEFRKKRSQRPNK
Briefly: PD-seq (MBP pull-down with sequencing). Conditions: 20 mM Tris-HCl pH 7.5, 100 mM NaCl, 1.5 mM MgCl2, 0.4 uM protein, 0.1 uM dsDNA library, 30 min, room temperature, amylose pull-down; high values mean tight binding; double strand, one strand shown.
For “GATGATTGTTCTCCCAGCTGATGAATTCAAGTTCTCGAGTAAACAAATTTTCCTAATCTTTCTGTTCAAGCGCCATCTAC”, the binding signal (RPM ratio (pull-down/input)) was determined as 0.403.
As for “GATGATTGTTCTCCCAGCTGATGAATTTGATTTTTCGAGTAAACAAATTTTCCTAATCTTTCTGTTCAAGCGCCATCTAC”, the figure is 2.9; as for “GATGATTGTTCTCCCAGCTGATGAATTTAGTTCGTCGAGTAAACAAATTTTCCTAATCTTTCTGTTCAAGCGCCATCTAC”, 1.06; as for “GATGATTGTTCTCCCAGCTGATGAATTGTAACTATCGAGTAAACAAATTTTCCTAATCTTTCTGTTCAAGCGCCATCTAC”, 1.17.
With “GATGATTGTTCTCCCAGCTGATGAATTCCTTGCCTCGAGTAAACAAATTTTCCTAATCTTTCTGTTCAAGCGCCATCTAC”, the binding signal (RPM ratio (pull-down/input)) turned out to be 0.36.
Take “GATGATTGTTCTCCCAGCTGATGAATTATACCGCTCGAGTAAACAAATTTTCCTAATCTTTCTGTTCAAGCGCCATCTAC”: the binding signal (RPM ratio (pull-down/input)) is 0.371.
“GATGATTGTTCTCCCAGCTGATGAATTGTGCACCTCGAGTAAACAAATTTTCCTAATCTTTCTGTTCAAGCGCCATCTAC”: the binding signal (RPM ratio (pull-down/input)) worked out at 2.92.
Turning to “GATGATTGTTCTCCCAGCTGATGAATTCGCCTGTTCGAGTAAACAAATTTTCCTAATCTTTCTGTTCAAGCGCCATCTAC”, the binding signal (RPM ratio (pull-down/input)) turned out to be 0.767.
As for “GATGATTGTTCTCCCAGCTGATGAATTTTTACCTTCGAGTAAACAAATTTTCCTAATCTTTCTGTTCAAGCGCCATCTAC”, the binding signal (RPM ratio (pull-down/input)) was found to be 0.223.
The value for “GATGATTGTTCTCCCAGCTGATGAATTGAATCAATCGAGTAAACAAATTTTCCTAATCTTTCTGTTCAAGCGCCATCTAC” was 0.391.
Regarding “GATGATTGTTCTCCCAGCTGATGAATTACCCAAATCGAGTAAACAAATTTTCCTAATCTTTCTGTTCAAGCGCCATCTAC”, the binding signal (RPM ratio (pull-down/input)) was found to be 0.259.
Take “GATGATTGTTCTCCCAGCTGATGAATTATAGGTGTCGAGTAAACAAATTTTCCTAATCTTTCTGTTCAAGCGCCATCTAC”: the binding signal (RPM ratio (pull-down/input)) was 0.644.
As for “GATGATTGTTCTCCCAGCTGATGAATTTCCTTCCTCGAGTAAACAAATTTTCCTAATCTTTCTGTTCAAGCGCCATCTAC”, the figure is 0.282.
As for “GATGATTGTTCTCCCAGCTGATGAATTTAGTTAATCGAGTAAACAAATTTTCCTAATCTTTCTGTTCAAGCGCCATCTAC”, the figure is 0.584; as for “GATGATTGTTCTCCCAGCTGATGAATTGGCTGTCTCGAGTAAACAAATTTTCCTAATCTTTCTGTTCAAGCGCCATCTAC”, 1.29; as for “GATGATTGTTCTCCCAGCTGATGAATTCGTAAAGTCGAGTAAACAAATTTTCCTAATCTTTCTGTTCAAGCGCCATCTAC”, 0.256.
For the sequence “GATGATTGTTCTCCCAGCTGATGAATTATAAACTTCGAGTAAACAAATTTTCCTAATCTTTCTGTTCAAGCGCCATCTAC”, the binding signal (RPM ratio (pull-down/input)) is 0.499.
Turning to “GATGATTGTTCTCCCAGCTGATGAATTCGTCCCTTCGAGTAAACAAATTTTCCTAATCTTTCTGTTCAAGCGCCATCTAC”, the binding signal (RPM ratio (pull-down/input)) stood at 0.784.
Consider “GATGATTGTTCTCCCAGCTGATGAATTATTAGATTCGAGTAAACAAATTTTCCTAATCTTTCTGTTCAAGCGCCATCTAC”, for which the binding signal (RPM ratio (pull-down/input)) was 0.333.
As for “GATGATTGTTCTCCCAGCTGATGAATTCTCCGAATCGAGTAAACAAATTTTCCTAATCTTTCTGTTCAAGCGCCATCTAC”, the figure is 0.176; as for “GATGATTGTTCTCCCAGCTGATGAATTACTGTAGTCGAGTAAACAAATTTTCCTAATCTTTCTGTTCAAGCGCCATCTAC”, 0.484; as for “GATGATTGTTCTCCCAGCTGATGAATTATATCCCTCGAGTAAACAAATTTTCCTAATCTTTCTGTTCAAGCGCCATCTAC”, 0.537.
For the sequence “GATGATTGTTCTCCCAGCTGATGAATTCTACTTTTCGAGTAAACAAATTTTCCTAATCTTTCTGTTCAAGCGCCATCTAC”, the binding signal (RPM ratio (pull-down/input)) came to 0.444.
As to “GATGATTGTTCTCCCAGCTGATGAATTGACAAGGTCGAGTAAACAAATTTTCCTAATCTTTCTGTTCAAGCGCCATCTAC”, the binding signal (RPM ratio (pull-down/input)) was 0.246.
The value for “GATGATTGTTCTCCCAGCTGATGAATTTAAACGGTCGAGTAAACAAATTTTCCTAATCTTTCTGTTCAAGCGCCATCTAC” was 0.263; that for “GATGATTGTTCTCCCAGCTGATGAATTACCTACATCGAGTAAACAAATTTTCCTAATCTTTCTGTTCAAGCGCCATCTAC” was 0.508.
As to “GATGATTGTTCTCCCAGCTGATGAATTGTAGCGGTCGAGTAAACAAATTTTCCTAATCTTTCTGTTCAAGCGCCATCTAC”, the binding signal (RPM ratio (pull-down/input)) was 0.618.
Take “GATGATTGTTCTCCCAGCTGATGAATTTTGATTGTCGAGTAAACAAATTTTCCTAATCTTTCTGTTCAAGCGCCATCTAC”: the binding signal (RPM ratio (pull-down/input)) was determined as 4.74.
In the case of “GATGATTGTTCTCCCAGCTGATGAATTCTGTAGATCGAGTAAACAAATTTTCCTAATCTTTCTGTTCAAGCGCCATCTAC”, the binding signal (RPM ratio (pull-down/input)) was determined as 0.912.
For the sequence “GATGATTGTTCTCCCAGCTGATGAATTATCAGGTTCGAGTAAACAAATTTTCCTAATCTTTCTGTTCAAGCGCCATCTAC”, the binding signal (RPM ratio (pull-down/input)) amounted to 0.267.
As for “GATGATTGTTCTCCCAGCTGATGAATTCACTACCTCGAGTAAACAAATTTTCCTAATCTTTCTGTTCAAGCGCCATCTAC”, the figure is 0.315; as for “GATGATTGTTCTCCCAGCTGATGAATTTACGGAGTCGAGTAAACAAATTTTCCTAATCTTTCTGTTCAAGCGCCATCTAC”, 0.322; as for “GATGATTGTTCTCCCAGCTGATGAATTCAAACCCTCGAGTAAACAAATTTTCCTAATCTTTCTGTTCAAGCGCCATCTAC”, 0.269.
As for “GATGATTGTTCTCCCAGCTGATGAATTGGGGGATTCGAGTAAACAAATTTTCCTAATCTTTCTGTTCAAGCGCCATCTAC”, the binding signal (RPM ratio (pull-down/input)) came to 0.551.
Regarding “GATGATTGTTCTCCCAGCTGATGAATTGACTACGTCGAGTAAACAAATTTTCCTAATCTTTCTGTTCAAGCGCCATCTAC”, the binding signal (RPM ratio (pull-down/input)) stood at 0.34.
In the case of “GATGATTGTTCTCCCAGCTGATGAATTCTCGAGCTCGAGTAAACAAATTTTCCTAATCTTTCTGTTCAAGCGCCATCTAC”, the binding signal (RPM ratio (pull-down/input)) was determined as 0.189.
In the case of “GATGATTGTTCTCCCAGCTGATGAATTACATACTTCGAGTAAACAAATTTTCCTAATCTTTCTGTTCAAGCGCCATCTAC”, the binding signal (RPM ratio (pull-down/input)) came out at 0.596.
Turning to “GATGATTGTTCTCCCAGCTGATGAATTAGGCCGATCGAGTAAACAAATTTTCCTAATCTTTCTGTTCAAGCGCCATCTAC”, the binding signal (RPM ratio (pull-down/input)) is 0.531.
“GATGATTGTTCTCCCAGCTGATGAATTGGAACGGTCGAGTAAACAAATTTTCCTAATCTTTCTGTTCAAGCGCCATCTAC”: the binding signal (RPM ratio (pull-down/input)) worked out at 0.199.
For “GATGATTGTTCTCCCAGCTGATGAATTGAAAGGCTCGAGTAAACAAATTTTCCTAATCTTTCTGTTCAAGCGCCATCTAC”, the binding signal (RPM ratio (pull-down/input)) was determined as 0.275.
Consider “GATGATTGTTCTCCCAGCTGATGAATTACCGCTGTCGAGTAAACAAATTTTCCTAATCTTTCTGTTCAAGCGCCATCTAC”, for which the binding signal (RPM ratio (pull-down/input)) came to 0.443.
As to “GATGATTGTTCTCCCAGCTGATGAATTTCGAGCTTCGAGTAAACAAATTTTCCTAATCTTTCTGTTCAAGCGCCATCTAC”, the binding signal (RPM ratio (pull-down/input)) came out at 0.301.
The value for “GATGATTGTTCTCCCAGCTGATGAATTTCCTGGTTCGAGTAAACAAATTTTCCTAATCTTTCTGTTCAAGCGCCATCTAC” was 0.206.
As for “GATGATTGTTCTCCCAGCTGATGAATTCTTCCCATCGAGTAAACAAATTTTCCTAATCTTTCTGTTCAAGCGCCATCTAC”, the binding signal (RPM ratio (pull-down/input)) worked out at 0.214.
For “GATGATTGTTCTCCCAGCTGATGAATTCTTTAAATCGAGTAAACAAATTTTCCTAATCTTTCTGTTCAAGCGCCATCTAC”, the binding signal (RPM ratio (pull-down/input)) worked out at 0.176.
The value for “GATGATTGTTCTCCCAGCTGATGAATTACCTCGGTCGAGTAAACAAATTTTCCTAATCTTTCTGTTCAAGCGCCATCTAC” was 0.223; that for “GATGATTGTTCTCCCAGCTGATGAATTTATGAACTCGAGTAAACAAATTTTCCTAATCTTTCTGTTCAAGCGCCATCTAC” was 0.58; that for “GATGATTGTTCTCCCAGCTGATGAATTATGAGAATCGAGTAAACAAATTTTCCTAATCTTTCTGTTCAAGCGCCATCTAC” was 0.285.
Consider “GATGATTGTTCTCCCAGCTGATGAATTTCGAGCGTCGAGTAAACAAATTTTCCTAATCTTTCTGTTCAAGCGCCATCTAC”, for which the binding signal (RPM ratio (pull-down/input)) was 0.447.
For “GATGATTGTTCTCCCAGCTGATGAATTTTGTATATCGAGTAAACAAATTTTCCTAATCTTTCTGTTCAAGCGCCATCTAC”, the binding signal (RPM ratio (pull-down/input)) was determined as 7.43.
As for “GATGATTGTTCTCCCAGCTGATGAATTGACTTCTTCGAGTAAACAAATTTTCCTAATCTTTCTGTTCAAGCGCCATCTAC”, the figure is 0.366; as for “GATGATTGTTCTCCCAGCTGATGAATTGATTGTCTCGAGTAAACAAATTTTCCTAATCTTTCTGTTCAAGCGCCATCTAC”, 2.86.
Consider “GATGATTGTTCTCCCAGCTGATGAATTGTGCAATTCGAGTAAACAAATTTTCCTAATCTTTCTGTTCAAGCGCCATCTAC”, for which the binding signal (RPM ratio (pull-down/input)) turned out to be 6.39.
Regarding “GATGATTGTTCTCCCAGCTGATGAATTCGAGCAATCGAGTAAACAAATTTTCCTAATCTTTCTGTTCAAGCGCCATCTAC”, the binding signal (RPM ratio (pull-down/input)) was found to be 1.65.
As for “GATGATTGTTCTCCCAGCTGATGAATTAGCTCTATCGAGTAAACAAATTTTCCTAATCTTTCTGTTCAAGCGCCATCTAC”, the figure is 0.336.
For the sequence “GATGATTGTTCTCCCAGCTGATGAATTTGGTCCATCGAGTAAACAAATTTTCCTAATCTTTCTGTTCAAGCGCCATCTAC”, the binding signal (RPM ratio (pull-down/input)) is 0.436.
For “GATGATTGTTCTCCCAGCTGATGAATTCTGGCCATCGAGTAAACAAATTTTCCTAATCTTTCTGTTCAAGCGCCATCTAC”, the binding signal (RPM ratio (pull-down/input)) worked out at 1.12.
For “GATGATTGTTCTCCCAGCTGATGAATTATCTAGATCGAGTAAACAAATTTTCCTAATCTTTCTGTTCAAGCGCCATCTAC”, the binding signal (RPM ratio (pull-down/input)) was 0.241.
On to “GATGATTGTTCTCCCAGCTGATGAATTAGTCGGCTCGAGTAAACAAATTTTCCTAATCTTTCTGTTCAAGCGCCATCTAC”, for which the binding signal (RPM ratio (pull-down/input)) worked out at 0.399.
For the sequence “GATGATTGTTCTCCCAGCTGATGAATTCATAGGCTCGAGTAAACAAATTTTCCTAATCTTTCTGTTCAAGCGCCATCTAC”, the binding signal (RPM ratio (pull-down/input)) was 0.321.
As for “GATGATTGTTCTCCCAGCTGATGAATTTATGGCATCGAGTAAACAAATTTTCCTAATCTTTCTGTTCAAGCGCCATCTAC”, the binding signal (RPM ratio (pull-down/input)) is 1.43.
The value for “GATGATTGTTCTCCCAGCTGATGAATTGAACGGTTCGAGTAAACAAATTTTCCTAATCTTTCTGTTCAAGCGCCATCTAC” was 0.309; that for “GATGATTGTTCTCCCAGCTGATGAATTTCATTTATCGAGTAAACAAATTTTCCTAATCTTTCTGTTCAAGCGCCATCTAC” was 1.69.
